Measured values published in PubChem BioAssay AID463173 (ICCB-Longwood Screening Facility, Harvard Medical School, 2010).
Among all 52,000 compounds or so, about 1,700 (3.3%) were called active. Rule as the data show it: active = survival mostly below about 52% (no sharp cut-off); inactive = mostly above about 56%. This is one part of the list.

tested on: Wild type; test: growth inhibition of S. aureus wild type versus tarO mutant, primary screen, teichoic acid synthesis inhibitors, RN4220, OD600 (AID 463173); conditions: S. aureus RN4220 wild type/DeltatarO growth, OD600, 18 h, hits give low values, screened at 18.75 µg/mL (by protocol)

| Compound | survival |
| --- | --- |
| CC1=CC(C)C(/C=N/N=C(N)N)C(C)C1 (stereo not drawn) | inactive: 92% |
| CCCC(=O)OC1=CN(Cc2ccccc2)S(=O)(=O)c2ccccc21 | inactive: 81% |
| O=C(Cn1cc(SCc2cccc(F)c2)c2ccccc21)N1CCOCC1 | inactive: 88% |
| CN1C(=O)N(C)C2C1N(C)S(=O)(=O)N2C (stereo not drawn) | inactive: 97% |
| Cc1cc(C)c2sc(N(Cc3cccnc3)C(=O)CCS(=O)(=O)c3ccccc3)nc2c1 | inactive: 67% |
| Cc1cccc(CSc2cn(CC(=O)N3CCCCC3)c3ccccc23)c1 | inactive: 82% |
| CC(C)(C)C1CCc2oc3ccc(NS(=O)(=O)c4cc(Cl)ccc4Cl)cc3c2C1 (stereo not drawn) | inactive: 122% |
| O=C(c1cc(-c2ccc(Br)cc2)n[nH]1)N1CCN(S(=O)(=O)c2ccc(Br)cc2)CC1 | inactive: 71% |
| CCC(=O)N1N=C(c2ccc(OC)cc2)CC1c1cn(-c2ccccc2)nc1-c1cccs1 (stereo not drawn) | inactive: 130% |
| COc1ccccc1N(CC(=O)NCCSCc1ccccc1Cl)S(C)(=O)=O | inactive: 67% |
| CC1(C)CC(N=CC2=C(O)c3ccccc3C2=O)CC(C)(C)N1 | inactive: 109% |
| CCOC(=O)c1cnc2ccc(C)cc2c1Nc1ccc(OCc2ccccc2Cl)cc1 | active: 4% |
| O=C(Cn1ccn(-c2ccc(F)cc2)c(=O)c1=O)NCCc1ccccc1 | inactive: 87% |
| CC(=O)N1c2ccc(S(=O)(=O)N3CCN(c4ccc(C)cc4C)CC3)cc2CC1C (stereo not drawn) | inactive: 81% |
| CCOc1ccc(N(c2nc(-c3ccc(OC)c(OC)c3)no2)c2nc(-c3ccc(OC)c(OC)c3)no2)cc1 | inactive: 81% |
| O=C(Nc1ccccc1)N1CCc2ccccc21 | inactive: 107% |
| Cc1oc(-c2cccc(Br)c2)nc1CN1CCC(C(=O)NCCc2ccc(Cl)cc2)CC1 | inactive: 81% |
| CCOC(=O)c1ccc(N2C(=O)c3n[nH]c(-c4cccs4)c3C2c2cccc(F)c2)cc1 (stereo not drawn) | inactive: 51% |
| CCOc1ccccc1NC(=O)C(CC(C)C)NS(=O)(=O)c1ccc2c(c1)CCN2C(C)=O (stereo not drawn) | inactive: 72% |
| S=c1n(CN2CCCCC2)c2ccccc2n1CN1CCCCC1 | inactive: 90% |
| CCc1ccc(NC(=O)CC2C(=O)OCCN2CC)cc1 (stereo not drawn) | active: -15% |
| CC(C)CNC(=O)CCSc1nc(-c2ccc3c(c2)OCO3)cc(C(F)(F)F)n1 | inactive: 88% |

| Compound | survival |
| --- | --- |
| CCc1ccccc1NC(=O)Cn1ncc2c(C)n(Cc3ccccc3F)c(C)c2c1=O | inactive: 90% |
| Cc1ccc(C)c(N2CCN(c3ccc(NC(=O)c4cccs4)cc3C(=O)O)CC2)c1 | inactive: 131% |
| O=C(Cn1c(=O)n(Cc2nc(-c3ccccc3)no2)c(=O)c2cc3c(cc21)OCO3)Nc1ccc(Cl)cc1 | inactive: 82% |
| OC1CCN(Cc2nnnn2Cc2ccccc2)CC1 | inactive: 108% |
| CCN(CC)CCCNC(=O)c1c(C)oc2ncn(CC(C)C)c(=O)c12 | inactive: 81% |
| Cn1c(=O)n(C)c2cc(NS(=O)(=O)c3ccc(Br)cc3)c(NCc3ccccc3)cc21 | inactive: 70% |
| CCc1ccc(-n2nc(C)c3c(C)cc(=O)n(CC(=O)Nc4ccc(C)c(F)c4)c32)cc1 | inactive: 136% |
| CCOc1ccc(-n2c(=O)c3c(C)c(C)sc3n(CC(=O)c3ccccc3)c2=O)cc1 | inactive: 146% |
| CN(C)c1ccc(NC(=O)CCSc2nc(-c3ccco3)cc(C(F)(F)F)n2)cc1 | inactive: 84% |
| CCNc1nnc(-c2ccccc2)s1 | inactive: 114% |
| CC1CCc2c(sc(NC(=O)CCCOc3ccc(C(C)(C)C)cc3)c2C(N)=O)C1 (stereo not drawn) | inactive: 79% |
| COc1cc(Br)c(C2CC(=O)Nc3cc(OC)c(OC)c(OC)c32)cc1OC (stereo not drawn) | inactive: 94% |
| COCCCNC(=O)c1cc2c(=O)n3cccc(C)c3nc2s1 | inactive: 94% |
| Cc1c(C)n(Cc2ccc(Cl)cc2)c2ccc(C(=O)NCCc3ccc(S(N)(=O)=O)cc3)cc12 | inactive: 127% |
| Nc1c(-c2nc(-c3ccc(Cl)cc3)cs2)c2ccccn2c1C(=O)c1ccc2c(c1)OCO2 | inactive: 105% |
| CCCCc1nc2ccccc2n2c(-c3ccc(C)cc3)c3c(=O)n(C)c(=O)n(C)c3c12 | inactive: 67% |
| O=S(=O)(Nc1cccc(-c2ccc(N3CCCCC3)nn2)c1)c1cccc(F)c1 | inactive: 119% |
| CC1CCN(S(=O)(=O)c2ccc3c(c2)N(CC(=O)NC(C)c2ccccc2)C(=O)CO3)CC1 (stereo not drawn) | inactive: 132% |
| CSc1cccc(NC(=O)CN(c2ccccc2)S(=O)(=O)N(C)C)c1 | inactive: 136% |
| Cc1ccc(C(=O)NS(=O)(=O)c2ccccc2)cc1 | inactive: 108% |
| COc1ccc(C2C(=O)N(C3CCC(C)CC3)CC(=O)N2CCc2ccccc2)cc1OC (stereo not drawn) | inactive: 57% |
| Cc1cc(N2CCCCC2)nc2ccc(NC(=O)c3cccc(F)c3)cc12 | inactive: 46% |

| Compound | survival |
| --- | --- |
| Cc1ccc(C(=O)N2CCc3cc(CNC(=O)COc4ccccc4)ccc32)cc1 | inactive: 82% |
| CCCc1nnc(NC(=O)Cc2coc3cc(C)cc(C)c23)s1 | inactive: 91% |
| O=S(=O)(c1cccc(C(F)(F)F)c1)n1c(/C=C/c2ccccc2)nc2ccccc21 | inactive: 78% |
| O=C(Cn1c(=O)n(-c2ccccc2)c(=O)c2sc3ccccc3c21)N1CCCC1 | inactive: 84% |
| CCCN1CCN(CCCNC(=O)c2cnn(-c3ccc(F)cc3)c2-n2cccc2)CC1 | inactive: 88% |
| CCOc1ccc(Nc2nc3ccccc3n3c(CC)nnc23)cc1 | inactive: 63% |
| O=C(Nc1ccc(Br)cc1)C1CCN(S(=O)(=O)c2cccc3nsnc23)CC1 | inactive: 93% |
| CC(C)OCCCNC(=O)CCCn1c(SCC(=O)c2ccc(F)cc2)nc2c(sc3ccccc32)c1=O | inactive: 89% |
| O=[N+]([O-])c1cc(-c2nc(-c3cccnc3)no2)ccc1NCc1ccccc1 | inactive: 95% |
| CC(C)c1ccc(NC(=O)CN2C(=O)COc3ccc(S(=O)(=O)Nc4ccccc4)cc32)cc1 | inactive: 72% |
| COc1ccc(CCNC(=O)c2nnc(Cc3ccc(Cl)cc3)o2)cc1OC | inactive: 80% |
| O=C(NCC(c1ccco1)S(=O)(=O)c1ccc(Cl)cc1)c1ccccc1F (stereo not drawn) | inactive: 74% |
| COc1ccc(-c2nn3c(=O)cc(CN4CCN(C(=O)Nc5ccc(C)c(Cl)c5)CC4)nc3s2)cc1 | inactive: 80% |
| Cc1ccc2oc(=O)c3cnn(CC(=O)Nc4cccc(C(F)(F)F)c4)c3c2c1 | inactive: 89% |
| NC(=O)/C(=C\c1ccco1)NC(=O)c1ccco1 | inactive: 106% |
| COCC(=O)N1c2nc(C(C)C)nn2C2(CCCCC2)[C@@H]2CCCC[C@@H]21 | inactive: 94% |
| CCOC(=O)c1sc(NC(=O)c2cc(CC)on2)c(C(=O)OCC)c1C | inactive: 78% |
| Cc1ccc(NS(=O)(=O)c2ccc3[nH]c4c(c3c2)CCCCCC4)cc1Cl | inactive: 71% |
| CCCOC(=O)c1ccc(NC(=O)Cc2csc(C)n2)cc1 | inactive: 121% |
| COC(=O)c1ccc(S(=O)(=O)N(C)C)o1 | inactive: 115% |
| Cc1c(C(=O)NCc2ccccc2)sc2nc3n(c(=O)c12)CCC3 | inactive: 107% |
| CCC(=O)N1CCc2cc(Br)cc(S(=O)(=O)NCc3ccc(Cl)cc3)c21 | inactive: 71% |

| Compound | survival |
| --- | --- |
| Cc1cccc(N2C(=O)CSC23C(=O)N(Cc2cccc(C(F)(F)F)c2)c2ccccc23)c1 (stereo not drawn) | inactive: 153% |
| CSc1nc2sc3c(c2c(=O)n1-c1ccccc1C)CCCC3 | inactive: 99% |
| Cc1nc(N2CCCC2)c2c(C(=O)N3CCN(c4cccc(Cl)c4)CC3)c(C)oc2n1 | inactive: 66% |
| COc1ccc(N2CCN(C(=O)c3ccc(CS(=O)(=O)c4ccc(Br)cc4)o3)CC2)cc1 | inactive: 132% |
| C=Cc1ccc(CSc2nc(-c3ccccc3Cl)nc3c2Cc2c(CO)cnc(C)c2O3)cc1 | inactive: 81% |
| Cc1ccc(N2CC(C)Cn3c2nc2c3c(=O)n(CC(=O)O)c(=O)n2C)cc1 (stereo not drawn) | inactive: 72% |
| CN(C)CCNC(=O)CCCN1C(=O)c2cccnc2Oc2ccc(Cl)cc21 | inactive: 83% |
| O=C(NC1CCCC1)c1cnn2c(C(F)F)cc(-c3ccccc3)nc12 | inactive: 122% |
| CCN(c1ccccc1)c1nnc(NC(=O)Nc2cccc(Br)c2)s1 | inactive: 86% |
| O=C1CC(c2nc3ccccc3n2CCCOc2ccccc2)CN1c1ccc(F)cc1 (stereo not drawn) | inactive: 107% |
| Cc1cc(C)cc(-n2ccn(CC(=O)Nc3ccccc3C(F)(F)F)c(=O)c2=O)c1 | inactive: 82% |
| CCN(c1ccc(OC)cc1)S(=O)(=O)c1nnc(NC(=O)c2ccccc2Cl)s1 | inactive: 58% |
| CN(C)C(=O)CSc1ccc(-c2ccc(F)cc2)nn1 | inactive: 99% |
| COCCCNC(=O)CSc1c2c(nc3ccc(Cl)cc13)CCCC2 | inactive: 73% |
| CCOc1ccc(C2c3c(oc4ccc(C)cc4c3=O)C(=O)N2Cc2ccc3c(c2)OCO3)cc1OC (stereo not drawn) | inactive: 142% |
| Cc1ccc(CNC(=O)c2ccc(CSCc3ccc(C)cc3)o2)cc1 | inactive: 87% |
| COc1ccc(NC(=O)c2sc3nc(C)c(C(=O)Nc4ccc(C)cc4C)c(-c4ccc(C)o4)c3c2N)cc1 | inactive: 77% |
| CCc1ccc(NC(=O)CN2C(=O)C3(SCC(=O)N3c3ccccc3)c3ccccc32)cc1 (stereo not drawn) | inactive: 152% |
| O=C(CNC1CCCC1)Nc1ccc(N2CCCC2)cc1 | inactive: 103% |
| Cc1ccc(Cl)cc1NC(=O)CSC1=Nc2ccccc2C2=NC(Cc3ccccc3)C(=O)N12 (stereo not drawn) | inactive: 83% |
| CC1(C)CC(=O)c2cc(-c3nc(-c4ccc(Cl)cc4)cs3)c(=O)n(-c3ccc(Cl)cc3)c2C1 | inactive: 67% |
| CCn1c(=N)c(S(=O)(=O)c2ccc(C)cc2)cc2c(=O)n3ccccc3nc21 | inactive: 102% |
